# The campaign covered roughly 310,000 compounds. About 14,000 (4.5%) showed an effect of 50% or more. The effect is printed as a negative number. The list shows a part of the results.
# Target: human ether-à-go-go-related gene (hERG) potassium channel (human, UniProt Q12809)
# Experiment: primary screen, population patch clamp on CHO cells stably expressing hERG
# 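Note: peak tail current of the secondary pulse compared with the same well before compound.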
# Sequence of human ether-à-go-go-related gene (hERG) potassium channel (Q12809 whole entry, looked up): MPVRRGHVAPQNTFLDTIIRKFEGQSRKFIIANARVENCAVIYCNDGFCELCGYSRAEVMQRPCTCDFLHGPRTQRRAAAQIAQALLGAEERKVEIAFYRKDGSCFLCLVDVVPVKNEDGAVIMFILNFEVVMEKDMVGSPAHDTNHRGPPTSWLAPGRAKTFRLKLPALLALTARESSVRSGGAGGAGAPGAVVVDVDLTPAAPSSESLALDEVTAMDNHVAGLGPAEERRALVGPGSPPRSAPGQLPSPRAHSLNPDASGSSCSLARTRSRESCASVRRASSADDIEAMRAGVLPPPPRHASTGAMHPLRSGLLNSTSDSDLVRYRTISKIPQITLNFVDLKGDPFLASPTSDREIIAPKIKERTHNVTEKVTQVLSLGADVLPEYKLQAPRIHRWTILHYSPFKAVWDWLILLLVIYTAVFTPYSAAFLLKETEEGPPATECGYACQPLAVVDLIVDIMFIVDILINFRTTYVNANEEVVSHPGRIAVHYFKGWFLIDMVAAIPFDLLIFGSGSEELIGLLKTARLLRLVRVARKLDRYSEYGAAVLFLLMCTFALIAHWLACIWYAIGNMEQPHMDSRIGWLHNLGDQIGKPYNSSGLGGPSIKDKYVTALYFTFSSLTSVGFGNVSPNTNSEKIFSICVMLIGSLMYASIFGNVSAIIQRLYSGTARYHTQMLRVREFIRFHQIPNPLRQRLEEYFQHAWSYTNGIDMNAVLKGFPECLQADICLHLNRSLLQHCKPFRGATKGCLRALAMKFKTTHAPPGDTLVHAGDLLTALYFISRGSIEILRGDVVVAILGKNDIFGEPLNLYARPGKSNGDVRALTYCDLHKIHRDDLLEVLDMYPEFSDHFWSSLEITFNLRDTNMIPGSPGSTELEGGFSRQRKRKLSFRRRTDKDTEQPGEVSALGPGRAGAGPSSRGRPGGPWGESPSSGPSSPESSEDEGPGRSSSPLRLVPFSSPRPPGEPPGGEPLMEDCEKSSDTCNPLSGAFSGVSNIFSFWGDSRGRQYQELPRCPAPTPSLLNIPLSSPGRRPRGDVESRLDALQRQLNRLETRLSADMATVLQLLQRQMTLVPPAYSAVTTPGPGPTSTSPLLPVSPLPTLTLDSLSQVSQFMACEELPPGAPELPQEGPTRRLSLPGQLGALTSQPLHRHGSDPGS
row,SMILES,"hERG current change (%, negative = inhibition) at 10uM [%]"
1,O=C(Cc1ccc(-n2cccc2)cc1)N1CCc2ccccc21,16.1
2,CCOc1ncccc1C(=O)Nc1ccc(Cl)c(S(=O)(=O)N2CCCC2)c1,6.26
3,Cc1c(NC(=O)CN2c3ccccc3CC2C)c(=O)n(-c2ccccc2)n1C (stereo not shown),5.82
4,CC(C)(C)/C(O)=C/c1nc2cc(Cl)ccc2oc1=O,13.5
5,O=C(Nc1nc(-c2ccccn2)cs1)c1ccc(S(=O)(=O)N2CCCCC2)cc1,-12.4
6,CC(SCc1ccccc1)C(=O)Nc1ccccc1 (stereo not shown),9.34
7,CCc1ccc(NC(=O)c2ccc3c(c2)C(=O)N(CCOC)C3Nc2ccc(CC)cc2)cc1 (stereo not shown),4.53
8,O=C1CCCc2cc3c(cc21)CC1(C3)Cc2cc3c(cc2C1)C(=O)CCC3,19.8
9,COc1ccc(OCC(O)CN2CCNCC2)cc1.Cl (stereo not shown),18.8
10,CCOc1ccc(C(=O)NNC(=O)CNC(=O)c2ccc(C)s2)cc1OC,2.08
11,CCCCOc1ccc(N(CC(=O)NCC2CCCO2)C(=O)CCC(=O)Nc2nccs2)cc1 (stereo not shown),-2.14
12,COc1ccc(CNC(=O)Cc2c[nH]c3ccccc23)cc1OC,11.4
13,COc1ccc(CC(=O)Nc2ccc(S(=O)(=O)Nc3ncccn3)cc2)cc1OC,-5.88
14,Cc1noc(C)c1COC(=O)[C@@H](NC(=O)c1ccccc1)C(C)C,11.5
15,COC(=O)c1ccc(NC(=O)CN2C(=O)CSC2=O)cc1,8.22
16,COc1ccc(CNC(=O)C(=O)NCC2OCCCN2S(=O)(=O)c2cccs2)cc1 (stereo not shown),2.53
17,CC(C)OCCCNC(=O)Cc1ccc(Br)cc1,19.8
18,CC(C)C(NC(=O)c1ccccc1)C(=O)N1CCN(C/C=C/c2ccccc2)CC1 (stereo not shown),-41.2
19,COc1ccc(CSCC(=O)NN=C2CCN(C)CC2)cc1,1.59
20,CCn1cc(C(=O)NC(=S)Nc2ccccc2[N+](=O)[O-])cn1,-3.04

row,SMILES,"hERG current change (%, negative = inhibition) at 10uM [%]"
1,CCOC(=O)C1=C(COC(=O)c2ncc(Cl)c(Cl)c2Cl)NC(=O)NC1C (stereo not shown),-60.6
2,Cc1nn(C)c(C)c1/C=C(/C(=O)C(C)C)n1cncn1,13.4
3,COc1ccccc1NC(=O)CCN1CCN(Cc2ccccc2)CC1,-22.3
4,Cc1ccccc1OCC(=O)N/N=C1\CCOc2c(C)cccc21,5.3
5,CC(C)Cc1nnc(NC(=O)CCC(=O)N2CCN(Cc3ccccc3)CC2)s1,-11.6
6,O=C(O)C(F)=C(c1ccccc1)c1ccccc1,13.3
7,CCOc1ccc(NC(=O)N2CCC(NC(=O)C(Cc3ccccc3OC)NC(C)=O)CC2)cc1 (stereo not shown),12.7
8,COc1ccc(CCNC(=O)C/C(C)=N/NC(=O)c2ccc([N+](=O)[O-])cc2Cl)cc1OC,9.46
9,CCn1c(SCc2cccc(C(=O)O)c2)nnc1-c1ccc(Cl)cc1,22.6
10,O=C(NCCc1ccccn1)c1ccc(OC(F)F)cc1,-24.7
11,Cc1nn2c(nc(N3CCCCC3)c3ccccc32)c1C=O,-23.3
12,CCC(=O)N1CCc2cc(S(=O)(=O)NC(C(=O)NCc3ccccc3)C(C)C)ccc21 (stereo not shown),13.2
13,COc1cccc(/C=N/N2CCN(c3ccccc3OC)CC2)c1,-19.1
14,O=C(c1ccc(Cl)cc1)c1oc2ccccc2c1CS(=O)(=O)c1ccccc1,-21.5
15,CCCC(=O)Nc1nc(-c2ccc(OC)cc2)cs1,10.4
16,CC1CCCCC1NC(=O)CCS(=O)(=O)c1cc2c(cc1Cl)NC(=O)CO2 (stereo not shown),-30.5
17,O=S(=O)(c1cccc(-c2nnco2)c1)N1CCCC1,-1.71
18,C(=N\Nc1nc2ccccc2[nH]1)/c1cccs1,-3.21
19,Clc1ccc(-c2nn3c(-c4ccccc4)nnc3s2)cc1,-7.2
20,Cn1c(=O)[nH]c(=O)c2c1nc(N1CCOCC1)n2CCc1ccccc1,-0.713

row,SMILES,"hERG current change (%, negative = inhibition) at 10uM [%]"
1,Cc1cc(C)c2sc(N(CCCN(C)C)C(=O)c3ccc(Br)s3)nc2c1.Cl,-43.7
2,CCOc1ccccc1NC(=O)Cn1c(=O)n(-c2ccccc2)c(=O)c2oc3ccccc3c21,-16.4
3,O=C(Cc1ccccc1)Nc1ccc(NC(=O)Cc2ccccc2)c(Cl)c1,34.3
4,CCn1c(SC(C)C(=O)OC)nnc1-c1c[nH]c2ccccc12 (stereo not shown),-5.23
5,COc1ccc(NC2=NC(C)(C)CS2)cc1,12.8
6,COc1ccc(OC(C)C(=O)NC2CC(C)(C)NC(C)(C)C2)cc1 (stereo not shown),-2.02
7,O=C(NCC1CCCO1)C1CCN(S(=O)(=O)c2ccc(Br)cc2)CC1 (stereo not shown),-23.9
8,Br.N#Cc1ccc(OCC(=O)NN2Cc3ccccc3C2=N)cc1,4.14
9,CCCOC(=O)c1ccc(Nc2nc(C)cc(=O)[nH]2)cc1,3.46
10,CCOC(=O)N1CCN(C(=O)C2CCN(S(C)(=O)=O)CC2)CC1,13.2
11,Cc1ccc(NC(=O)CCOc2ccccc2C)cc1C,1.72
12,O=C(CCC(=O)N1CCOc2ccccc21)NCCCN1CCCCC1,7
13,COc1ccc(NC(=O)CN2CC=C(c3ccccc3)CC2)cc1S(=O)(=O)N1CCOCC1,-12.7
14,Cc1csc(NC(=O)c2cc3ccccc3o2)n1,2.94
15,Cc1nc2nc(-c3ccco3)nn2c(C)c1Cl,9.1
16,CC(=O)Nc1ccc(S(=O)(=O)Nc2ccccc2N2CCOCC2)cc1,2.6
17,CC1(C(=O)NCc2ccc(Cl)c(Cl)c2)Oc2cccnc2NC1=O (stereo not shown),-45.3
18,O=c1ncn(-c2cccc(Cl)c2)c2ccccc12,-13.7
